For the series, the system named is ATP. Description: switch fluorescence ratio, 500 uM ATP over buffer (Cy3 cluster intensity, sum of 5 cycles each) (fold (ratio)); higher = stronger signal-on switching upon ATP binding; sequences stand for … in TCGTCGGCAGCGTCAGATGTGTATAAGAGACAGTTTTTTTTTTTTTTTTTTTTTTTTT…TC. Particulars: aptamer strand: ATP DNA aptamer (quencher-CACCTGGGGGAGTATTGCGGAGGAAGG + anchor), 100 nM annealed; ATP concentration: 500 uM; one replicate. In short, it runs like this:
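Cy3-labelled switching-strand clusters on a modified Illumina MiSeq flow-cell were annealed to 100 nM quencher-labelled ATP aptamer, imaged in selection buffer, then imaged after 15 min with 500 uM ATP at 22 °C. Five buffer/ATP cycles ran, with NaOH stripping and re-annealing between them. The fluorescence ratio is summed target-cycle over summed buffer-cycle Cy3 intensity per cluster, averaged per switch-domain sequence. Clusters outside 100-1000 RFU were excluded.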

Sequences with one replicate were seen in a single cluster, so their values are uncertain.

67 sequences from the supplement of paper PMC10126150 can be followed below.
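Also: ATP exposure 15 min at 22 °C before imaging.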

For TCAGTTGACA, the switch fluorescence ratio amounted to 1.03.

With AGGGCACCAA, the switch fluorescence ratio turned out to be 1.06.

TGGTGGCCTA: the switch fluorescence ratio is 1.01.

As to CGGGTTGCAA, the switch fluorescence ratio was found to be 1.18.

As for CAAGTCTTGG, the switch fluorescence ratio was determined as 0.981.

For the sequence GTCCTCGCAG, the switch fluorescence ratio worked out at 2.64.

Take TGCTGTAGTG: the switch fluorescence ratio is 0.949.

As to GCCAATGCGT, the switch fluorescence ratio was 1.03.

With CACCGTTGA, the switch fluorescence ratio came to 1.07.

For the sequence AGAGTTGTAT, the switch fluorescence ratio was 0.976.

Consider TCCGTCCTTT, for which the switch fluorescence ratio was found to be 0.975.

CAGTTCGGAT: the switch fluorescence ratio turned out to be 0.96.

For the sequence GAGCTACGTG, the switch fluorescence ratio came out at 1.04.

GCCCAAAACC: the switch fluorescence ratio worked out at 1.09.

As for CCCATTAATA, the switch fluorescence ratio was determined as 1.01.

CCGCCCTTGA: the switch fluorescence ratio was determined as 1.29.

In the case of TTTTGTTCGA, the switch fluorescence ratio was 1.01.

As to GTACACGAA, the switch fluorescence ratio came out at 1.07.

Turning to CCAGTATTGC, the switch fluorescence ratio amounted to 1.09.

As for GTGGCTGGTC, the switch fluorescence ratio was determined as 1.01.

On to ACTGAAGAGG, for which the switch fluorescence ratio stood at 1.01.

Regarding AGCAGGCGGG, the switch fluorescence ratio was determined as 1.01.

Turning to TCAAAAAGTT, the switch fluorescence ratio amounted to 1.03.

On to TCCTACTCAT, for which the switch fluorescence ratio turned out to be 1.87.

CAGTCCTCGT: the switch fluorescence ratio worked out at 0.987.

Turning to GCATGAGAAA, the switch fluorescence ratio is 1.

With GGTAATTCAG, the switch fluorescence ratio was found to be 0.991.

For TGATCAGGCG, the switch fluorescence ratio was found to be 0.988.

Take GTAGGTATGT: the switch fluorescence ratio came to 0.962.

As for AAGTCACTCA, the switch fluorescence ratio was 1.11.

With TGATAACTAT, the switch fluorescence ratio came to 0.979.

In the case of CACAGGATCG, the switch fluorescence ratio turned out to be 0.982.

Consider TTGGAGTCGG, for which the switch fluorescence ratio was determined as 0.983.

Turning to AACTGGTCAG, the switch fluorescence ratio came out at 0.938.

Consider GTTCCGAAAT, for which the switch fluorescence ratio was found to be 1.21.

Turning to AACGAAATCA, the switch fluorescence ratio is 1.02.

As for TTGGTGACAC, the switch fluorescence ratio is 1.05.

TTGCTCCTTG: the switch fluorescence ratio was 1.04.

For the sequence GGTTGAAAT, the switch fluorescence ratio was found to be 0.973.

Regarding GTGGTATACG, the switch fluorescence ratio amounted to 0.97.

For AACGGAGCCA, the switch fluorescence ratio amounted to 1.25.

Turning to ATGCTTCTTA, the switch fluorescence ratio turned out to be 1.

TTAGGTATAT: the switch fluorescence ratio worked out at 1.04.

For GGGGGCGATC, the switch fluorescence ratio is 1.03.

On to TACGTCTTTG, for which the switch fluorescence ratio turned out to be 0.997.

In the case of CAAGATATGG, the switch fluorescence ratio is 0.994.

In the case of AGAACAGCCT, the switch fluorescence ratio turned out to be 1.09.

As for TGTGGACGGG, the switch fluorescence ratio turned out to be 0.984.

AACATAAAGG: the switch fluorescence ratio was found to be 0.95.

Turning to ACTCTCACAA, the switch fluorescence ratio came to 1.69.

As for GTAAGCGAGC, the switch fluorescence ratio was 0.978.

For the sequence AGGTTACGCC, the switch fluorescence ratio amounted to 1.03.

On to TCCCCTGAAC, for which the switch fluorescence ratio worked out at 1.14.

TATCGTGCGG: the switch fluorescence ratio was found to be 1.05.

Consider GGTACATCAA, for which the switch fluorescence ratio amounted to 1.02.

Consider AAGGACGTGC, for which the switch fluorescence ratio is 1.07.

Take AAGAACGCGT: the switch fluorescence ratio was found to be 1.21.

On to CCGGCCAGGG, for which the switch fluorescence ratio came to 1.57.

Consider GGTGCGTTAG, for which the switch fluorescence ratio is 0.977.

For the sequence CGGTAGTACC, the switch fluorescence ratio came out at 1.02.

Consider CGAAGTATTC, for which the switch fluorescence ratio is 1.25.

For the sequence TAATATTAGT, the switch fluorescence ratio was 0.987.

Consider GACGGTTGGC, for which the switch fluorescence ratio is 1.02.

With CGGTCCTGAC, the switch fluorescence ratio came to 1.15.

Turning to CATCTGAGTT, the switch fluorescence ratio is 1.

As for TCCATTGACG, the switch fluorescence ratio was found to be 1.1.

Regarding TTTTATGAA, the switch fluorescence ratio worked out at 0.969.
